# In PubChem BioAssay AID463173 (ICCB-Longwood Screening Facility, Harvard Medical School, 2010):
# Out of some 52,000 compounds screened, about 1,700 (3.3%) were called active. Rule as the data show it: active = survival mostly below about 52% (no sharp cut-off); inactive = mostly above about 56%. This is one part of the list.
# System: Wild type
# Experiment: growth inhibition of S. aureus wild type versus tarO mutant, primary screen, teichoic acid synthesis inhibitors, RN4220, OD600 (AID 463173)
# Details: S. aureus RN4220 wild type/DeltatarO growth, OD600, 18 h, active compounds read low, screened at 18.75 µg/mL (by protocol)
row,SMILES,survival
1,Cc1ccc(Cl)cc1NC(=O)N1CCC2(CC1)Oc1ccccc1C(=O)N2Cc1ccccc1F,inactive: 127%
2,COc1ccc(-c2cn3c(n2)sc2cc(C(=O)NC4CCCCCC4)ccc23)cc1,inactive: 95%
3,CCOC(=O)CN1C(=O)C(C)(C)Oc2ccc(C(=O)NC(C)C)cc21,inactive: 117%
4,Cc1cccc(NC(=O)C(=O)NCCc2sc(-c3ccccc3)nc2C)c1C,inactive: 63%
5,Cc1c(Cl)cccc1NC(=O)C(CCS(C)(=O)=O)N1Cc2ccccc2C1=O (configuration not stated),inactive: 74%
6,Cc1ccccc1CN(Cc1ccco1)C(=O)c1cc2ccccc2oc1=O,inactive: 97%
7,CC(=O)c1c(C)oc2ccc(N(C(=O)Oc3ccccc3)S(=O)(=O)c3ccccc3)cc12,inactive: 78%
8,Cc1ccc(S(=O)(=O)c2c(Nc3cc(C)ccc3C)sc(C(=O)c3ccc4c(c3)OCO4)c2N)cc1,inactive: 152%
9,CCCS(=O)(=O)N1CCN(S(=O)(=O)c2ccccc2)CC1,inactive: 93%
10,CC(CNC(=O)c1cc(-c2ccccc2)n[nH]1)c1ccccc1 (configuration not stated),inactive: 68%
11,CC1CCCN(c2c(S(=O)(=O)c3ccccc3)cnc3ccc(Cl)cc23)C1 (configuration not stated),inactive: 121%
12,COc1ccc(CCN2C(=O)N(c3ccc(C)cc3)C(=O)C2CC(=O)Nc2ccc(F)cc2)cc1 (configuration not stated),inactive: 76%
13,Cc1nn(C(=O)COc2ccccc2Br)c(C)c1Sc1ccccc1,inactive: 57%
14,Nc1cc(=O)nc(SCC(=O)Nc2ccc(F)cc2)n1-c1cccc(Cl)c1,inactive: 143%
15,Cc1cccc(N2CCN(C(=O)c3c(C)oc4ncnc(N5CCOCC5)c34)CC2)c1C,inactive: 78%
16,COc1ccc(C)cc1NC(=O)c1cc(S(=O)(=O)N2CCC(C)CC2)cn1C,inactive: 45%
17,CCc1ccc(NC(=O)C(NS(=O)(=O)c2cccc3nsnc23)c2ccccc2)cc1 (configuration not stated),inactive: 71%
18,COc1ccc(CN2C(=O)N(c3ccc(F)cc3)C(=O)C2CC(=O)Nc2cc(OC)cc(OC)c2)cc1 (configuration not stated),inactive: 55%
19,Cc1cccc(NC(=O)c2sc3nc(-c4ccccc4)cn3c2C)c1C,inactive: 120%
20,COc1ccc2c(CNCc3ccccc3OC)c(C(=O)O)n(Cc3ccc(F)cc3Cl)c2c1,inactive: 100%
21,CCc1ccc(NC(=O)C2CCC(CNS(=O)(=O)c3ccc4c(c3)C(C)(C)C(=O)N4C)CC2)cc1 (configuration not stated),inactive: 90%
22,CCN1/C(=C\C=C2C(=O)OC(C)(C)OC2=O)Sc2ccccc21,inactive: 94%

row,SMILES,survival
1,COc1cccc(NC(=O)c2sc3nc(C)c(C(=O)Nc4ccc(Cl)cc4)c(-c4ccc(Br)cc4)c3c2N)c1,inactive: 145%
2,O=C(CSc1n[nH]c(-c2ccccc2)n1)N1CCN(c2ccccc2F)CC1,inactive: 129%
3,COc1ccc(N(CC(=O)Nc2cccc(C(C)=O)c2)S(=O)(=O)c2ccccc2)c(OC)c1,inactive: 72%
4,Cc1cc(OCCCn2c(CCNC(=O)C3CCCCC3)nc3ccccc32)ccc1Cl,active: 0%
5,COc1ccc2c(Sc3ccc(C)cc3)c(C(=O)NCCc3ccccc3)[nH]c2c1,inactive: 88%
6,COc1ccc(-c2c3c(=O)n(C)c(=O)n(C)c3c3n2-c2ccccc2NC3c2ccc(O)cc2O)cc1 (configuration not stated),active: -8%
7,O=C(CSc1nc(-c2cccs2)nc2cc(=O)[nH]n12)Nc1cccc(C(F)(F)F)c1,inactive: 128%
8,OCc1cnc(SCc2ccc(F)cc2)n1Cc1ccc(F)cc1,inactive: 85%
9,CCOc1ccc(C(=O)N(Cc2cc(OC)c(OC)c(OC)c2)c2ccccn2)cc1,inactive: 83%
10,O=C(Nc1nc2n(n1)C(c1ccc(Cl)cc1)C=C(c1ccccc1)N2)c1ccco1 (configuration not stated),inactive: 55%
11,Cc1nn(C)c2c1c(C(F)(F)F)cc(=O)n2C(C)C(=O)NCCc1ccccc1 (configuration not stated),inactive: 84%
12,CCOC(=O)C1=C(C)NC(=O)NC1c1cn(-c2ccccc2)nc1-c1ccc(OC(C)C)cc1 (configuration not stated),inactive: 60%
13,O=C(Cn1c(CC(=O)N2CCCC2)nc2ccccc21)NCc1ccccc1,inactive: 99%
14,COCC(=O)N(CC1CCCO1)c1nnc(C)s1 (configuration not stated),inactive: 106%
15,COc1ccc(CCNC(c2ccc(F)cc2)c2nnc(-c3ccccc3Cl)o2)cc1OC (configuration not stated),inactive: 49%
16,O=C(Cn1cnc2onc(-c3ccc(F)cc3)c2c1=O)Nc1ccc(F)c(Cl)c1,inactive: 72%
17,O=C(CN1c2ccccc2S(=O)(=O)c2ccccc21)Nc1ccccc1Cl,inactive: 65%
18,O=C(c1ccc(F)cc1)N1CCC(c2nc(-c3ccc(S(=O)(=O)N4CCCC4)cc3)no2)CC1,inactive: 89%
19,NC(=O)CSc1nnc(Cn2cnc3ccccc32)o1,inactive: 114%
20,COc1ccccc1N(CC(=O)Nc1ccc2c(c1)OCO2)S(=O)(=O)c1ccc(C)cc1,inactive: 105%
21,CCCOc1ccc(-c2nonc2NC(=O)c2oc3ccc(Cl)cc3c2C)cc1OCCC,inactive: 89%
22,N#C/C(=C\c1cccnc1)C(=O)Nc1ccccc1,inactive: 109%

row,SMILES,survival
1,O=C(O)CCC(=O)Nc1nc(-c2ccccc2)cs1,inactive: 106%
2,CCOc1ccc(S(=O)(=O)c2cn(Cc3ccccc3C)c3ccc(OC)cc3c2=O)cc1,inactive: 94%
3,CCc1nn(CC(=O)NCCCN2CCN(CC)CC2)c(=O)c2cc3occc3n12,inactive: 135%
4,Cc1ccc2nc(COc3ccccc3NC(=O)c3ccccc3F)cc(=O)n2c1,inactive: 80%
5,Cc1ccc2c(c1)c(CC(=O)Nc1ccc(C)c(F)c1)c(C(=O)O)n2C,inactive: 66%
6,CCOc1cccc(C2c3[nH]c4ccccc4c3CCN2C(=O)CSCc2ccc(F)cc2)c1 (configuration not stated),inactive: 127%
7,CCc1cccc(NC(=O)C2Cc3ccccc3N2C(=O)c2ccccc2)c1 (configuration not stated),inactive: 136%
8,O=C(c1ccc2c(c1)N(Cc1c(F)cccc1Cl)C(=O)c1ccccc1S2)N1CCOCC1,inactive: 94%
9,CCOC(=O)N1CCN(Cc2nc3cc(NC(=O)C(C)C)ccc3n2C(C)C)CC1,inactive: 96%
10,CCCNC(=O)c1ccc(-c2nc(CS(=O)(=O)c3ccc(C)cc3)c(C)o2)cc1,inactive: 65%
11,NC(=O)Cn1c(=O)n(CCCCCC(=O)NCc2ccc(F)cc2)c(=O)c2sccc21,inactive: 82%
12,COc1ccc(OC)c(NC(=O)CSc2ncc3c(n2)-c2ccccc2N(C)S3(=O)=O)c1,inactive: 75%
13,O=C(C1COc2ccccc2O1)N(Cc1cccnc1)c1nc2c(Cl)cccc2s1 (configuration not stated),inactive: 71%
14,CCOC(=O)/C(C#N)=C/c1ccc(-c2ccc(Br)cc2)o1,inactive: 103%
15,Cc1ccccc1-c1noc(-c2cccnc2N2CCN(c3ccccc3)CC2)n1,inactive: 120%
16,COc1cccc(C(=O)Nc2cccc(-c3cn4ccsc4n3)c2)c1OC,inactive: 90%
17,CCCCS(=O)(=O)CC(O)CSc1nc(-c2ccc(C)cc2)cc(-c2ccccc2)c1C#N (configuration not stated),inactive: 79%
18,CCc1cccc(NS(=O)(=O)c2ccc(-n3cccn3)cc2)c1,inactive: 73%
19,CCN(CC)C(=O)Cn1c(=O)n(-c2ccc(C)c(C)c2)c(=O)c2c3c(sc21)CCCCC3,inactive: 93%
20,CCOC(=O)c1ccc(NC(=O)CCn2c(=O)c3cccn3c3cccnc32)cc1,inactive: 87%
21,O=C(Nc1ccc(F)cc1F)c1cc(-c2ccc(Cl)cc2)on1,inactive: 90%
22,O=C(NCCCN1CCN(c2ccc(F)cc2)CC1)c1cnn(-c2ccc(F)cc2)c1-n1cccc1,inactive: 82%

row,SMILES,survival
1,CCc1ccc(NC(=O)CSc2ccc(-c3ccccn3)nn2)cc1,inactive: 121%
2,COc1ccc(NC(=O)c2ccc3c(SCC(=O)O)c4c(nc3c2)CCCC4)c(OC)c1,inactive: 78%
3,Cc1cccc(-c2nc3c4ccccc4n(Cc4cccc(Cl)c4)c(=O)n3n2)c1,inactive: 113%
4,O=C(CN1C(=O)COc2ccc(S(=O)(=O)N3CCOCC3)cc21)N1CCN(c2cccc(Cl)c2)CC1,inactive: 95%
5,COc1ccc(C(NC(C)=O)c2ccc(OC)cc2)cc1,inactive: 108%
6,CC1CCN(CCC(=O)Nc2ccc(Br)cc2)CC1,inactive: 118%
7,C#CCSc1nc(-c2ccccc2)cc(-c2ccccc2)c1C#N,inactive: 70%
8,Cc1ccc(-n2c3c(cc(-c4nc(-c5ccc(Cl)cc5)cs4)c2=O)C(=O)CC(C)(C)C3)cc1C,inactive: 79%
9,COc1ccc(NC(=O)C2CCCN(c3ncnc4c3nc3n4CCCCC3)C2)c(OC)c1 (configuration not stated),inactive: 90%
10,COc1cc(NS(=O)(=O)c2cc3c(cc2C)N(C)CCO3)cc(OC)c1OC,inactive: 81%
11,Cc1cc(Br)ccc1NC(=O)Cn1cc(S(=O)(=O)N2CCN(c3ccccc3F)CC2)c2ccccc2c1=O,inactive: 79%
12,O=S(=O)(c1ccc(-c2cc(C(F)(F)F)on2)s1)N1CCN(c2ccc(F)cc2)CC1,inactive: 123%
13,Cc1ccccc1C(=O)Nc1ccc(-c2nc3ccccc3o2)cc1,inactive: 115%
14,Cc1ccc(C)c(N2CCN(C(=O)CCc3nnc4n(CC(C)C)c(=O)c5ccccc5n34)CC2)c1,inactive: 81%
15,CC1=C(c2ccc(C(C)C)cc2)S(=O)(=O)NC1=NCCCN1CCN(c2ccccc2F)CC1,inactive: 78%
16,Cc1ccc(CN2CCc3nc(Nc4ccc5c(c4)OCCO5)ncc3C2)cc1,inactive: 82%
17,CCOc1ccc(CNC(=O)c2cnc3sc(N4CCOCC4)nn3c2=O)cc1,inactive: 71%
18,CCS(=O)(=O)N1CCc2cc(C(=O)Nc3ccc(C(=O)OC)cc3)ccc21,inactive: 92%
19,CCn1cc(C(=O)N2CCN(c3cccc(Cl)c3)CC2)c2cc(OC)c(OC)cc2c1=O,inactive: 71%
20,Cc1ccc(NC(=O)Cn2c(=O)c3ccccc3n3nncc23)cc1,inactive: 130%
21,Cc1cc(=O)oc2c3c(ccc12)OCC3=O,inactive: 111%
